The structures appear in SMILES notation. The whole screen tested about 150,000 compounds, of which about 540 (0.36%) showed an effect of 50% or more. Some of the results follow.

For the assay, the system named is Plasmodium falciparum. As to the kind of experiment: Primary screen in NF54 nanoGlo assay, in single point, at 2uM, 72h; a lower Z score goes with more inhibition. It counts as functional, Erythrocyte. Particulars: timepoint 72 hour.
As usually defined, the % Inhibition is the relative decrease from the control value, in per cent. Regarding `COc1ccc(NC(=O)N2C[C@@H]3C[C@H]2C[C@@H]3NC(=O)c2ccccc2)c(C)c1`, the “% Inhibition” value stood at 30% and the Z score is reported as -3.34.
In the same order, the values of `Cc1ncoc1C(=O)Oc1ccc(-c2noc(-c3cccnc3)n2)cc1` are -10% and 2.16.
For `Cc1cccc(C2c3[nH]c4ccccc4c3C[C@H]3C(=O)N(c4ccc5c(c4)OCCO5)C(=O)N23)c1` (stereo partly specified), the “% Inhibition” value is -8% and the Z score worked out at 0.98.
For `COC(=O)[C@@H](C)NC(=O)c1coc(COc2ccc3ncccc3c2)n1`, the “% Inhibition” value came to 9% and the Z score is reported as -1.05.
On the same counts, the results for `Cn1cc([C@@H](NC(=O)c2cccc(=O)[nH]2)C(F)(F)F)cn1` are -6% and 0.96.
On the same counts, the results for `C[C@H](NC(=O)c1cn(C)c(=O)[nH]c1=O)C1=CCCCC1` are 5% and -0.85.
As for `Cc1nc(-c2ccnc(NCc3cnc(N(C)C)nc3)c2)n[nH]1`, the “% Inhibition” value stood at 5% and the Z score is given as -0.63.
In the same order, the values of `Cc1ncn(CCNC(=O)[C@H]2C[C@@H]2c2ccccc2)c1C` are -3% and 0.64.
With `Cc1ncn(C)c1-c1nc(-c2cccc(CN3CCCCC3)c2)no1`, the “% Inhibition” value was -7% and the Z score is 1.35.
In the same order, the values of `Cc1ccc(OCCOCCN(C)CCO)c(Cl)c1` are 2% and -0.3.
On the same counts, the results for `O=C(Cc1nnc(-c2cnccn2)o1)Nc1ccc(F)c(F)c1` are -7% and 0.67.
`Cc1ccc(-c2ccnc(N3CC[C@@H]4OCc5cnnn5[C@H]4C3)n2)c(C)n1`: the “% Inhibition” value is listed as -10% and the Z score was determined as 1.69.
With `O=C(Cn1c(-c2ccccc2)nn(-c2ccccc2Cl)c1=O)N1CC(O)C1`, the “% Inhibition” value is reported as -14% and the Z score turned out to be 1.64.
With `Cc1cc(COCC(=O)N2CCc3cc(C)c(C)cc32)no1`, the “% Inhibition” value is -6% and the Z score was determined as 0.84.
On the same counts, the results for `CCOc1ccccc1CN1CCC(C)(c2noc(C3CCOCC3)n2)CC1` are -3% and 0.32.
In the same order, the values of `O=S(=O)(c1ccc2ccccc2c1)N1CCN(c2nccs2)CC1` are -20% and 2.75.
`Cc1cncn1C1CCN(C(=O)[C@]2(C)CC[C@H](C)C2(C)C)CC1`: the “% Inhibition” value was determined as 15% and the Z score was -2.67.
In the same order, the values of `CN1CCC(OCCCn2ccnc2-c2ccccc2C(=O)O)CC1` are -11% and 1.43.
On the same counts, the results for `Cc1cccc(NC(=O)COc2c(C)[nH]ccc2=O)n1` are -4% and 0.75.
`Cc1sc2ccccc2c1CN1CCO[C@H](C(=O)N(C)C)C1`: the “% Inhibition” value is on record as -13% and the Z score was 2.57.
As to `CCc1ncnc(N2CC(c3cnc4ccccc4n3)C2)c1F`, the “% Inhibition” value is listed as -10% and the Z score was determined as 1.11.
For the compound `CC1(C)CCc2sc(CNC(=O)C3(O)CCOCC3)cc2C1`, the “% Inhibition” value is 11% and the Z score is listed as -1.08.
In the same order, the values of `CCCN(Cc1c(C)nn(-c2ccccc2)c1N1CCN(CC)CC1)C(=O)CC(C)(C)C` are -12% and 1.35.

Values taken from ChEMBL document CHEMBL4888484, “Replenishing the malaria drug discovery pipeline: Screening and hit evaluation of the MMV Hit Generation Library 1 (HGL1) against asexual blood stage Plasmodium falciparum ,using a nano luciferase reporter read-out” (2022).
